The source of these data is publication PMC6713926, “Structural Basis for Properdin Oligomerization and Convertase Stimulation in the Human Complement System” (Frontiers in Immunology, 2019).

The target of one data set is T1, Biotinylated C3b (human, UniProt P01024 23-667; P01024 in part, biotin (Maleimide-PEG2-Biotin)).
T1 construct: complement C3, human, beta chain; complement C3, human, alpha' chain of C3b; also called biotin-C3b; immobilized C3b; source: made from plasma C3 by trypsin cleavage in the presence of Maleimide-PEG2-Biotin, purified by cation exchange
The experiment in a line: BLI; biotinylated C3b on streptavidin sensors; FB variants at 40 μg/mL; 20 mM MES pH 6.0, 100 mM NaCl, 0.05% Tween, 1 mg/mL BSA, 5 mM MgCl2. Particulars: both partners purified. Background: BLI is a label-free optical method that tracks binding on a fibre tip over time.

A further data set deals with T2, C3b (human, UniProt P01024 23-667; P01024 in part).
T2 construct: complement C3, human, beta chain; complement C3, human, alpha' chain of C3b, ends at Asn1663; also called C3b fragment
The experiment in a line: BLI; miniFH amine-coupled on AR2G sensors; FP (94 nM), C3b (280 nM) or a mixture of both; 30°C; PBS, 1 mg/mL BSA, 0.05% Tween 20; FP ~90% dimer and 10% trimer. Particulars: both partners purified.

Data set [1] concerns the molecule itself. Description: SEC; FP variants eluted from hFPNb1/Ni-NTA beads run on Superdex200 increase in 20 mM HEPES, 150 mM NaCl, pH 7.5; fractions analysed by western blot with anti-FP. A general note: In gel filtration, larger molecules generally elute earlier.

Where a chain is given by its changes, count along the chain named. Names and notes keep the numbering of the source.

Sequence of Biotinylated C3b (P01024 23-667, chain 1 of 2): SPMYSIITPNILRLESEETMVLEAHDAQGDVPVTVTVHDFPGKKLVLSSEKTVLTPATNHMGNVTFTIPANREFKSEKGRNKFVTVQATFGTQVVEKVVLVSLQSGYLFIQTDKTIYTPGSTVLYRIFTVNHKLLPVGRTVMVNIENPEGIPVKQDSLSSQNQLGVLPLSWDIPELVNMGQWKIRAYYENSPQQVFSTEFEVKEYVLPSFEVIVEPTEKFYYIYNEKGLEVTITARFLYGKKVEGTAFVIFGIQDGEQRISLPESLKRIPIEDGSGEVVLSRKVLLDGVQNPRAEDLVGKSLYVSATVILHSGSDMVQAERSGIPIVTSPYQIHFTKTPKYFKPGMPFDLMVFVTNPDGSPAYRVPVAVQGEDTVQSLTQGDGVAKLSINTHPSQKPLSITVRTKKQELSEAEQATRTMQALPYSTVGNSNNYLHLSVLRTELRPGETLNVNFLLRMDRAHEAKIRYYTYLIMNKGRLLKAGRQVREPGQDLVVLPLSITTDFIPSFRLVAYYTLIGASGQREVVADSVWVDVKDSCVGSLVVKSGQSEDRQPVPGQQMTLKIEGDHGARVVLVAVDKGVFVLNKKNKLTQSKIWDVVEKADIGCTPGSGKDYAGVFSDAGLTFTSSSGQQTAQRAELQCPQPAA
Sequence of Biotinylated C3b (P01024 749-1663, chain 2 of 2): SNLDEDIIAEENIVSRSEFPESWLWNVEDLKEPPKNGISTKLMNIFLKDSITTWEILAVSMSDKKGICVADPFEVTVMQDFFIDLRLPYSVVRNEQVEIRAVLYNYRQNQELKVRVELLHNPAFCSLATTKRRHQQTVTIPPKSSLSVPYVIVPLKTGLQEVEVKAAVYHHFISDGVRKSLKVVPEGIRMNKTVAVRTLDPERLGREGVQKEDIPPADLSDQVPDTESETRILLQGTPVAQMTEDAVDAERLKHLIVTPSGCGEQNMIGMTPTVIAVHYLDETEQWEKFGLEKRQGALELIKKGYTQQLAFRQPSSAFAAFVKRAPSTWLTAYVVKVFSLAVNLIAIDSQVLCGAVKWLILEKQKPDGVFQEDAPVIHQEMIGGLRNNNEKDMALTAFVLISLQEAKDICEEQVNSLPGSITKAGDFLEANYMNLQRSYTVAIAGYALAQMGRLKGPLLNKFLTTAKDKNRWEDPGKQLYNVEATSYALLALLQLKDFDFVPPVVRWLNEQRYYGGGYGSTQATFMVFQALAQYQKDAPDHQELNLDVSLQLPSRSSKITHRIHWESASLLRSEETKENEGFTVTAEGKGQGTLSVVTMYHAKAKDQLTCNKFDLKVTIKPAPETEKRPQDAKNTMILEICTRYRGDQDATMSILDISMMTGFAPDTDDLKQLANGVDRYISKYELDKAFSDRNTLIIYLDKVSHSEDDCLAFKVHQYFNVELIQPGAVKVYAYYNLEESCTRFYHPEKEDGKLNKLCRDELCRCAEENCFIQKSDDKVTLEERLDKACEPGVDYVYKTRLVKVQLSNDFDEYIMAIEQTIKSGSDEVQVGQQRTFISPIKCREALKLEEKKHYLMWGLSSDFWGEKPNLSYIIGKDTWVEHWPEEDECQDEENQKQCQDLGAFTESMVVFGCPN
Sequence of C3b (P01024 23-667, chain 1 of 2): as the sequence (P01024 23-667, chain 1 of 2) above
Sequence of C3b (P01024 749-1663, chain 2 of 2): as the sequence (P01024 749-1663, chain 2 of 2) above

B1: Recombinant FB D279G, S699A (enzyme, human, UniProt P00751 26-764, looked up)
chain: TPWSLARPQGSCSLEGVEIKGGSFRLLQEGQALEYVCPSGFYPYPVQTRTCRSTGSWSTLKTQDQKTVRKAECRAIHCPRPHDFENGEYWPRSPYYNVSDEISFHCYDGYTLRGSANRTCQVNGRWSGQTAICDNGAGYCSNPGIPIGTRKVGSQYRLEDSVTYHCSRGLTLRGSQRRTCQEGGSWSGTEPSCQDSFMYDTPQEVAEAFLSSLTETIEGVDAEDGHGPGEQQKRKIVLDPSGSMNIYLVLDGSGSIGASNFTGAKKCLVNLIEKVASYGVKPRYGLVTYATYPKIWVKVSEADSSNADWVTKQLNEINYEDHKLKSGTNTKKALQAVYSMMSWPDDVPPEGWNRTRHVIILMTDGLHNMGGDPITVIDEIRDLLYIGKDRKNPREDYLDVYVFGVGPLVNQVNINALASKKDNEQHVFKVKDMENLEDVFYQMIDESQSLSLCGMVWEHRKGTDYHKQPWQAKISVIRPSKGHESCMGAVVSEYFVLTAAHCFTVDDKEHSIKVSVGGEKRDLEIEVVLFHPNYNINGKKEAGIPEFYDYDVALIKLKNKLKYGQTIRPICLPCTEGTTRALRLPPTTTCQQQKEELLPAQDIKALFVSEEEKKLTRKEVYIKNGDKKGSCERDAQYAPGYDKVKDISEVVTPRFLCTGGVSPYADPNTCRGDAGGPLIVHKRSRFIQVGVISWGVVDVCKNQKRQKQVPAHARDFHINLFQVLPWLKEKLQDEDLGFL
notes: complement factor B (FB), human; also called FB KLK; 348-KLK-350
As to B1, the binding result with Biotinylated C3b is listed as “binds”.

B2: WT FP, recombinant oligomeric properdin (natural protein, human, UniProt P27918 28-469, looked up)
chain: DPVLCFTQYEESSGKCKGLLGGGVSVEDCCLNTAFAYQKRSGGLCQPCRSPRWSLWSTWAPCSVTCSEGSQLRYRRCVGWNGQCSGKVAPGTLEWQLQACEDQQCCPEMGGWSGWGPWEPCSVTCSKGTRTRRRACNHPAPKCGGHCPGQAQESEACDTQQVCPTHGAWATWGPWTPCSASCHGGPHEPKETRSRKCSAPEPSQKPPGKPCPGLAYEQRRCTGLPPCPVAGGWGPWGPVSPCPVTCGLGQTMEQRTCNHPVPQHGGPFCAGDATRTHICNTAVPCPVDGEWDSWGEWSPCIRRNMKSISCQEIPGQQSRGRTCRGRKFDGHRCAGQQQDIRHCYSIQHCPLKGSWSEWSTWGLCMPPCGPNPTRARQRLCTPLLPKYPPTVSMVEGQGEKNVTFWGRPLPRCEELQGQKLVVEEKRPCLHVPACKDPEEEEL
notes: properdin (FP), human, wild type; Secreted oligomers; preparations of ~50% dimer and 50% trimer, and of ~90% dimer and 10% trimer, were used; also called oligomeric FP; dimeric FP; source: also in cell supernatant
For the molecule B2, the binding result in the data set with C3b was “binds”.

B3: FP E244Q (natural protein, human, UniProt P27918 28-469, looked up)
chain: B2 chain with E217Q
notes: properdin (FP), human
With B3, the binding result in data set [1] is recorded as “binds”.

B4: FP E244A (natural protein, human, UniProt P27918 28-469, looked up)
chain: B2 chain with E217A
notes: properdin (FP), human
For B4, in data set [1], the binding result is “binds”.
